Laboratory results published in ChEMBL document CHEMBL4888484, “Replenishing the malaria drug discovery pipeline: Screening and hit evaluation of the MMV Hit Generation Library 1 (HGL1) against asexual blood stage Plasmodium falciparum ,using a nano luciferase reporter read-out” (2022).
Among all 150,000 compounds or so, about 540 (0.36%) showed an effect of 50% or more. This is one part of the list.

test system: Plasmodium falciparum; experiment: Primary screen in NF54 nanoGlo assay, in single point, at 2uM, 72h; a lower Z score goes with more inhibition; assay type: functional, Erythrocyte; conditions: timepoint 72 hour

SMILES	% Inhibition [%]	Z score
NS(=O)(=O)c1ccccc1Cc1ccc(-n2cccn2)cc1	-7	1.28
O=C(Nc1cnccc1O)c1cnccn1	3	-0.42
CS(=O)(=O)N1C[C@@H](CC(=O)O)[C@@H](c2c[nH]nn2)C1	-5	0.95
C[C@H]1CCc2c(sc(=O)n2CN(C)Cc2cccc(C#N)c2)C1	-11	1.09
Cc1noc(C)c1CON=C(N)c1ccc(N(C)C)cc1	2	-0.21
COc1ccc(Cl)cc1CN1CCN(CCC2OCCO2)CC1	-7	0.94
O=C(CCc1ccno1)NC1(CN2CCOCC2)CCCC1	-2	0.28
O=C(CN1C(=O)CCn2nc(-c3cccc(Cl)c3)cc21)N1CCN(C(=O)c2ccco2)CC1	5	-0.55
O=S(=O)(CC[C@H]1CCCCO1)NCC#Cc1cccnc1	-4	0.7
CNC(=O)c1nc(-c2cccc(-c3ccccc3)c2)n[nH]1	0	0.01
CCN1CCNC(=O)[C@@H]1CC(=O)Nc1ccc(-c2cn3ccc(C)cc3n2)cc1	-2	0.41
Cc1ccc(OCc2cc(C(=O)NCc3n[nH]c(=O)[nH]3)oc2C)cc1	2	-0.31
CC(C)[C@H](CNC(=O)NCc1cccnc1)N1CCN(C)CC1	-5	0.61
CCCN1CCC[C@H](NC(=O)N(C)Cc2nc(-c3cccnc3)no2)C1	-2	0.34
O=C(Nc1cc(C2CC2)nn1C1CCS(=O)(=O)C1)C1CC=CCC1 (stereo not drawn)	-11	2.12
O=C(c1ncoc1C1CC1)N(CCCn1ccnc1)Cc1cccnc1	-1	0.18
Cc1ccsc1S(=O)(=O)N1C[C@H]2C[C@H](O)[C@@H](O)C[C@H]2C1	-6	1.28
O=C(Cn1nnc(-c2ccc3c(c2)OCO3)n1)Nc1cccc(Br)c1	0	-0.01
C=CCC[C@H](O)CN1CCN(c2nc(-c3ccccc3)nc(CC)c2Cc2ccccc2F)CC1	1	-0.09
CCCN(CCc1cccc(F)c1)C(=O)CCc1c(C)noc1C	-7	1.31
Cc1nn(C)cc1CN1CCC2(CCC(=O)N([C@H]3CC[C@H](O)CC3)C2)CC1	-6	0.64
O=C(NCc1nc(-c2ccc[nH]c2=O)no1)c1cnc[nH]1	-13	2.26
CCCCn1cc(CNC(=O)N2CC[C@H](CC)C2)c(C)n1	-2	0.43
N#Cc1cc(F)ccc1NCCOCC1CC1	0	0.06
Cc1ccccc1C1CC(Nc2ccc(N3C(=O)CCCC3=O)cc2)C1 (stereo not drawn)	-7	0.71
COCCN(C)C[C@H]1C[C@H](CO)CN(Cc2ccc(F)c(F)c2)C1	-16	2.37
COc1ccc(C2=NS(=O)(=O)N(C)C(C(=O)N3CCCC[C@@H]3C)=C2)cc1OC	-9	1.65

SMILES	% Inhibition [%]	Z score
C[C@@H](C1CC1)N(C)C(=O)c1cnn(C)c1	-6	1.1
O=C(c1ccc2cc[nH]c2c1)N1CCCC[C@@H]1CCN1CCCC1	-6	1.09
Cc1c(CNC(=O)NCc2cn(C)cn2)oc2ccccc12	-1	0.1
CN(c1ccsc1)[C@H]1CCCNC1=O	7	-0.68
COC(=O)c1ccc(C(=O)N2C3CCC2CC(Oc2cccnc2)C3)cc1 (stereo not drawn)	-4	0.59
Cc1cc(C)c2ccc3c(C)c(C)[nH]c3c2n1	-2	0.38
CC(C)C1OCCC1CNC(=O)CC1C=CCC1 (stereo not drawn)	-9	1.48
CC1(C)NC(=O)N(Cc2coc(-c3ccc(F)cc3)n2)C1=O	-10	1.17
CN(Cc1ccccc1)C(=O)[C@H]1O[C@H](CCN2CCN(Cc3ccccc3)CC2)CC[C@@H]1O	-8	1.27
O=C(c1n[nH]c2ccccc12)N1CCCC1	-14	2.33
CCCn1c(=O)c2sccc2n(CC(=O)NC2CCCCC2)c1=O	2	-0.27
CCOCC(=O)Nc1ccc(C)nc1C	0	0.09
COc1ccc2oc(CNC(=O)[C@H]3C[C@@H]4C=C[C@H]3C4)nc2c1	-6	0.87
CCN(CC)CCN(C(=O)c1ccc(S(=O)(=O)N2CCCCCC2)cc1)c1nc2c(OC)cccc2s1	17	-2.13
CC(c1ccccc1)C(C)(O)C(=O)N1CCCC(c2nc(N(C)C)no2)C1 (stereo not drawn)	-11	1.73
Cc1ccc(N2CCN(C(=O)c3ccc4c(c3)N(C)[C@@H]3CCCCN3C4=O)CC2)cc1	-10	1.73
O=C(COc1ccccc1O)NC(c1ccc2c(c1)CCO2)[C@H]1C[C@@H](O)C1 (stereo partly drawn)	-13	1.74
Cc1ccccc1-c1nc2n(n1)C1(CCCCC1)[C@@H]1CCCC[C@@H]1N2C(=O)C(C)C	-19	1.72
CC[C@H]1CN(CC)CCN1C(=O)c1cnc(C2OCCO2)s1	7	-0.78
CC(C)c1ccc(NC(=O)[C@H]2Nc3cc(F)ccc3S(=O)(=O)N2)cc1	-8	0.95
COc1ccc(-c2nccn3cc(C(=O)NCc4c(C)nn(C)c4C)nc23)cc1	-5	0.91
CCOCC(=O)NC[C@H](O)c1ccccc1F	-11	1.7
FC(F)(F)Cn1nc(-c2ccco2)nc1CC1CCNCC1	-1	0.12
CC(C)(Oc1ccc(F)cc1)c1nc(-c2cnccn2)no1	-12	1.62
CC[C@H]1COCCN1S(=O)(=O)N1CCCCCC1	-12	1.08
CCS(=O)(=O)C1CN(C(=O)c2ccc(F)cc2O)C1	-21	1.96
CC1CC(c2ccccc2)CN1S(=O)(=O)Cc1ccc(F)cc1C#N (stereo not drawn)	0	-0.05
